According to PubChem BioAssay AID2147 (National Center for Advancing Translational Sciences (NCATS), 2009):
Several values for one entry are separate records, joined by “and”; a condition that tells them apart may be missing. Equal entries are not always repeated. The whole screen tested about 230,000 compounds, of which about 3,600 (1.6%) were called active. The shares of active, inactive and inconclusive entries below differ from those in the screen. Calls come from the whole dose curve; as a rule, active = well fitted inhibition curve with a large enough effect (not every such curve was filed as active); inconclusive = small, poorly fitted or top-dose-only effect, or another doubt; inactive = no such curve, though single readings can be large or run the other way. Potencies beside an inconclusive call are fits to weak or partial responses and may not hold up.

target: Lysine-specific demethylase 4E (Homo sapiens) (UniProt B2RXH2); experiment: qHTS Assay for Inhibitors of Human Jumonji Domain Containing 2E (JMJD2E); details: JMJD2E catalytic domain, FDH-coupled NADH fluorescence (FDH is formaldehyde dehydrogenase); series mostly up to 57.1 µM
Note: nearly all actives have a fitted effect of over 50% in size.
Potency is the fitted concentration of half-maximal effect; tags give direction and shape of the fitted curve.

UniProt B2RXH2, sequence (B2RXH2 whole entry, looked up, the tested form may be a part): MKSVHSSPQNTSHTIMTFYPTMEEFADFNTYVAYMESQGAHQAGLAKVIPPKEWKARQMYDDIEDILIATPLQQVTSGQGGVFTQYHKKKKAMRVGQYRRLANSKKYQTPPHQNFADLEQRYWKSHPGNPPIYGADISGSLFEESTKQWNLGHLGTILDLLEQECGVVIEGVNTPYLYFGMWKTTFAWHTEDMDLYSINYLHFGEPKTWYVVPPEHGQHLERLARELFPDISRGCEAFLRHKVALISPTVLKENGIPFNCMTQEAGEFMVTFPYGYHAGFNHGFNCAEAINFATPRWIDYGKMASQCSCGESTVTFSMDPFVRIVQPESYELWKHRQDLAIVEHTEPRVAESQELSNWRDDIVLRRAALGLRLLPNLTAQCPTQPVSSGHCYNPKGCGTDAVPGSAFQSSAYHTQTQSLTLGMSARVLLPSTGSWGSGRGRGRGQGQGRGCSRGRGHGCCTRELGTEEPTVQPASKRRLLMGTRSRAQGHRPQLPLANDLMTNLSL

Compound | Potency
CCC(=O)Nc1ccc(/C(C)=N\NC(=O)c2ccc(C)s2)cc1 | inconclusive: 35.5 µM [inhibitor, single point]
Cc1ccc(OCC(=O)NC2CCCC2)c(C)c1 | inactive
COc1ccc(-c2ccc(-c3noc(-c4ccccc4F)n3)c(OC)n2)cc1 | inconclusive: 10 µM [inhibitor, partial curve]
CCCS(=O)(=O)N1CCN(c2ccccn2)CC1 | inconclusive: 35.5 µM [inhibitor, single point]
CCOC(=O)c1[nH]c2ccccc2c1NC(=S)Nc1cccc(C)c1 | inconclusive: 35.5 µM [inhibitor, single point]
COc1ccc(CNc2ccc3c(c2)ncn3-c2ccccc2OC)cc1 | inconclusive: 39.8 µM [inhibitor, single point]
Cc1ccc(=O)n(-c2ccccc2)c1 | inconclusive: 31.6 µM [inhibitor, partial curve] and inconclusive: 25.1 µM [inhibitor, partial curve]
CCN(CC)C(=O)CSc1nc2ccc(NC(=O)CSc3nccn3C)cc2s1 | inactive
O=C(c1cc2ccccc2c(=O)o1)N1CCCc2ccccc21 | inactive
O=C(N/N=C/C=C/c1ccccc1)c1cccs1 | inactive
COC(=O)c1ccc(CNC(=O)c2c3c(nc4ccccc24)CCN(Cc2ccccc2)C3)cc1 | inactive
O=C(CSc1nnnn1C1CCCC1)NCc1cccs1 | inconclusive: 0.199 µM [inhibitor, full curve, poor fit]
CCCCc1ccc(NC(=S)N2CCN(c3ncccn3)CC2)cc1 | inconclusive: 28.2 µM [inhibitor, partial curve]
CN(C)C(=O)c1snnc1-c1ccccc1 | inactive
COCCn1c(-c2ccc(C)cc2)nc2oc3cc(OC)ccc3c(=O)c2c1=O | inconclusive: 39.8 µM [inhibitor, single point]
NS(=O)(=O)c1ccc(N/N=C/c2ccccc2C(=O)O)c([N+](=O)[O-])c1 | inconclusive: 31.6 µM [inhibitor, single point]
Cc1cc(-c2ccccc2)cc(-c2ccccc2)[n+]1C | inconclusive: 39.8 µM [inhibitor, single point]
COc1ccccc1N(C)S(=O)(=O)c1ccc(C(=O)Nc2ccc3nc(C)sc3c2)cc1 | inconclusive: 39.8 µM [inhibitor, single point]
COc1ccc(NC(=S)NCCc2ccc(S(N)(=O)=O)cc2)c(OC)c1 | inactive
COc1ccc(/C=N/Nc2ncnc3c2[nH]c2ccc(C)cc23)c(OC)c1OC | inconclusive: 35.5 µM [inhibitor, single point]
Cc1cccc(N=Cc2c(O)cc(C)oc2=O)c1 | inconclusive: 39.8 µM [inhibitor, single point]
COc1ccc2cc(C(=O)C3CCCN(Cc4cccc(C)n4)C3)ccc2c1 (centres undefined) | inconclusive: 28.2 µM [inhibitor, partial curve]
Cc1ccc2[nH]c3c(c2c1)CCc1cn[nH]c1-3 | inconclusive: 10 µM [inhibitor, partial curve]
N#CCCn1cc(/C=C(\C#N)c2nc3ccccc3s2)c(-c2ccc(F)cc2)n1 | inconclusive: 35.5 µM [inhibitor, single point]
COc1ccc(/C=C2/C(=O)N(CC3CCCO3)C(=S)N2C)c(OC)c1 (centres undefined) | inactive

Compound | Potency
Cc1ccc(NC(=O)c2noc3c2CC(C(C)(C)C)CC3)cc1 (centres undefined) | inconclusive: 39.8 µM [inhibitor, single point]
CC(C)N(CC(=O)Nc1ccc(Cl)cc1C(F)(F)F)C(=O)CCl | inactive
Cc1ccc(Nc2nc(C(=O)N3CCC(C(=O)NC(C)C)CC3)cs2)cc1 | inactive
CS(=O)(=O)c1ccc(Cl)c(NC(=O)CCl)c1 | inactive
CCOC(=O)c1nn(-c2ccccc2F)c2nc(-c3ccco3)c(C#N)c(=O)n12 | inconclusive: 35.5 µM [inhibitor, single point]
Nc1nnc(-c2cc3ccccc3oc2=O)s1 | inconclusive: 25.1 µM [inhibitor, partial curve]
Cc1c(N=C2NC(=O)/C(=C/c3cccc([N+](=O)[O-])c3)S2)c(=O)n(-c2ccccc2)n1C | inactive
O=C(Nn1cc(C(=O)Nc2ccc(F)cc2F)c2ccccc2c1=O)c1cnccn1 | inconclusive: 39.8 µM [inhibitor, single point]
CCC(=O)Nc1cc2nn(-c3ccc(OC)cc3)nc2cc1C | inconclusive: 3.16 µM [inhibitor, full curve]
COc1ccc(-c2cc(-c3ccco3)[nH]c(=O)c2C#N)cc1OC | inconclusive: 31.6 µM [inhibitor, partial curve]
C=C1C[C@]23C[C@@]1(O)CC[C@H]2[C@@]12C=C[C@H](O)C(C)(C(=O)O1)[C@H]2[C@@H]3CC(=O)O | inactive
CCOC(=O)c1cc(-c2csc(Nc3c(C)cc(C)cc3C)n2)on1 | inactive
CC1CC2(CCCCC2)Nc2c1ccc1ccccc21 (centres undefined) | inconclusive: 2.24 µM [inhibitor, partial curve]
Cc1oc(-c2cccs2)nc1CN1CCC(CO)(CCOc2ccccc2)CC1 | inconclusive: 22.4 µM [inhibitor, partial curve]
CC(C)=CC(O)C/C(C)=C/COc1ccc2ccc(=O)oc2c1 (centres undefined) | inconclusive: 31.6 µM [inhibitor, partial curve]
COC(=O)c1c(NC(=O)c2ccco2)sc2c1C(C(=O)OC)CC2 (centres undefined) | inconclusive: 35.5 µM [inhibitor, single point]
CC(=O)Nc1ccc(OCC(O)CNC2CCCC2)cc1 (centres undefined) | inactive
COc1ccc(-c2nc(-c3ccccc3)c(Nc3ccc4ccccc4c3)o2)cc1 | inconclusive: 39.8 µM [inhibitor, single point]
CC(c1ccccn1)N(CCN(C)C)C(=S)Nc1cccc(F)c1 (centres undefined) | inconclusive: 4.47 µM [inhibitor, single point]
CCCCc1cc(=O)oc2cc(C)cc(OC(C)C(=O)O)c12 (centres undefined) | inconclusive: 28.2 µM [inhibitor, partial curve]
COc1ccc(-c2cc(=O)[nH][nH]2)cc1OC | inconclusive: 1.26 µM [inhibitor, full curve]
O=C(COC(=O)c1ccccc1Nc1ccccc1)NCc1ccccc1 | inconclusive: 25.1 µM [inhibitor, partial curve]
Cc1ccc2cc(C#N)c(N3CCCN(S(=O)(=O)c4ccc(F)cc4)CC3)nc2c1 | inconclusive: 35.5 µM [inhibitor, partial curve]
COc1ccc(Cn2cc3c(-c4ccc(F)cc4)nnc-3c3cc(OC)c(OC)cc32)cc1 | inconclusive: 25.1 µM [inhibitor, partial curve]
O=C(O)COc1ccc(/C=N/n2cnc3scc(-c4cccs4)c3c2=O)cc1 | inactive

Compound | Potency
CC(C)CC(=O)NC(=S)Nc1ccc(N2CCOCC2)c(Cl)c1 | inactive
NC(N)=NCCC[C@@H](N)C(=O)O | inactive
O=C1C=CC2=C3c4cc(O)c(O)cc4C[C@]3(O)COC2=C1 | active: 12.6 µM
Cc1ccc(C(=O)N2C(=S)C(c3ccc(F)cc3)=NC23CCN(C)CC3)cc1 | inactive
CCc1ccc2[nH]c(=O)c(C(c3nnnn3CCOC)N3CCN(c4ccccc4)CC3)cc2c1 (centres undefined) | inconclusive: 22.4 µM [inhibitor, partial curve]
C=CCn1c(C2CCCCC2)n[nH]c1=S | inactive
N#Cc1nc(-c2ccco2)oc1NCc1ccccc1Cl | inconclusive: 31.6 µM [inhibitor, partial curve]
C(=C\c1ccccc1)/CSc1nnc(-c2ccccn2)n1Cc1ccco1 | inactive
CCOC(=O)CNC(=O)O[C@@H]1Cc2cc(OC)ccc2O[C@H]1c1cccc(OC)c1 | inactive
Cc1ccccc1Oc1nnc(-c2cccs2)c2ccccc12 | inactive
Cn1nc(C(F)(F)F)cc1-c1ccc(/C=C(\C#N)C(=O)c2ccccc2)s1 | inconclusive: 0.0045 µM [inhibitor, full curve, poor fit]
C=CCn1c(SCC(=O)Nc2ccc(C(=O)OC(C)C)cc2)nnc1-c1cccs1 | inconclusive: 39.8 µM [inhibitor, single point]
CCCCCCCCCCCCCCCC[n+]1cccc(C(=O)N(CC)CC)c1 | inactive
O=C(COc1ccccc1)NCC(=O)N/N=C/c1ccc(O)cc1O | active: 14.1 µM
O=C(O)C1CSC(c2ccco2)N1 (centres undefined) | inconclusive: 28.2 µM [inhibitor, single point]
CCOC(=O)Cc1csc(NC(=O)c2ccc(S(=O)(=O)N3CCOCC3)cc2)n1 | inactive
O=C(/C=C/c1c(Cl)cccc1Cl)n1cccn1 | inactive
Cc1ccc2[nH]c(=O)c(CN(Cc3ccc4c(c3)OCO4)Cc3nnnn3C3CCCC3)cc2c1 | inconclusive: 39.8 µM [inhibitor, single point]
O=C(Cc1ccccc1)NNC(=S)NC(=O)c1cccs1 | inconclusive: 39.8 µM [inhibitor, single point]
O=C1CCCC2=C1C(c1cccc(O)c1)c1c(ccc3ncccc13)N2 (centres undefined) | inconclusive: 28.2 µM [inhibitor, partial curve]
CCN1CCCC1CNC(=O)c1cc2c(C)nc3ccccc3c2o1 (centres undefined) | inconclusive: 28.2 µM [inhibitor, partial curve]
COc1ccc(N=C2SC(CC(=O)Nc3ccccc3)C(=O)N2Cc2ccccn2)cc1 (centres undefined) | inactive
COc1ccc(NC(=O)Cc2cccc(F)c2)cc1S(=O)(=O)Nc1ccccc1Cl | inactive
Cc1cn(C(=O)c2ccccc2)c(=S)n1-c1ccc(Br)cc1 | inconclusive: 35.5 µM [inhibitor, single point]
